# Measurements taken from article PMC4336329 (PLoS ONE, 2015).
# Hit rate of the full screen: of about 310,000 compounds, about 14,000 (4.5%) showed an effect of 50% or more. Effects have a minus sign here. The list shows a part of the results.
# Target: human ether-à-go-go-related gene (hERG) potassium channel (human, UniProt Q12809)
# Test: primary screen, population patch clamp on CHO cells stably expressing hERG
# 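Note: peak tail current of the secondary pulse compared with the same well before compound.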
# Chain of human ether-à-go-go-related gene (hERG) potassium channel (Q12809 whole entry, looked up): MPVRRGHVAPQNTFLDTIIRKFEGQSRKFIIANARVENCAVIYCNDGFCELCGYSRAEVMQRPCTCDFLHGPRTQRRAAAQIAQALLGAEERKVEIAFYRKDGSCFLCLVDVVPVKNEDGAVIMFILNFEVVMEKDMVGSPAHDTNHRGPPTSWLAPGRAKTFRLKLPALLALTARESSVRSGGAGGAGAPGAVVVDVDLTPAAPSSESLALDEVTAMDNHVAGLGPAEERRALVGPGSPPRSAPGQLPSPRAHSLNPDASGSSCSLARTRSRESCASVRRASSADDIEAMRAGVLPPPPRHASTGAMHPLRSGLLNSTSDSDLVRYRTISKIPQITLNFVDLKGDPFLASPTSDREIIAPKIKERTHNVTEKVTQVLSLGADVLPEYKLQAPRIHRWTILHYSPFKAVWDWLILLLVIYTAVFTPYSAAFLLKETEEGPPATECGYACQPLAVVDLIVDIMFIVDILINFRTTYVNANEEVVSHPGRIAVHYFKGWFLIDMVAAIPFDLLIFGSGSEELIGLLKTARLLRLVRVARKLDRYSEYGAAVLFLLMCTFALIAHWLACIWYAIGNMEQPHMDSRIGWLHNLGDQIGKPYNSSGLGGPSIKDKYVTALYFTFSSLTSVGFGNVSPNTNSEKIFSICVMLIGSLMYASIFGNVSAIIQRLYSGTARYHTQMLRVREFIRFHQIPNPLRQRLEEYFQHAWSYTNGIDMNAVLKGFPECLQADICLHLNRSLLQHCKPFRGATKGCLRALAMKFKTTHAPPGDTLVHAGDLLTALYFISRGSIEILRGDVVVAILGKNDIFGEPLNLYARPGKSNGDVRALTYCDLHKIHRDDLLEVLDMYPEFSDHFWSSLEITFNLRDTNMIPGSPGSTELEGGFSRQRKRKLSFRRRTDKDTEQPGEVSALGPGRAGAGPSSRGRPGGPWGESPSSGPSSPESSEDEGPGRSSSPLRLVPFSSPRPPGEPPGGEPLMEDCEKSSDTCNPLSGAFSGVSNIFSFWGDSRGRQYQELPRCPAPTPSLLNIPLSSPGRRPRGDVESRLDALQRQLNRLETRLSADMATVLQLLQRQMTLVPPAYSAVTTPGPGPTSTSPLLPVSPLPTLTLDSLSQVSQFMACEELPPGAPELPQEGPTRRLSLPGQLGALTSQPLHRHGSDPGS
row,Structure (SMILES),"hERG current change (%, negative = inhibition) at 10uM"
1,Cc1cccc(NC(=O)c2ccccc2[N+](=O)[O-])n1,14.7%
2,O=C(c1ccccc1)N1CCCC(c2nc3c(nnn3Cc3ccccc3)c(=O)[nH]2)C1 (centres unmarked),-3.63%
3,CC/C(=N\Nc1ccccc1[N+](=O)[O-])c1ccc(O)cc1,18.7%
4,COc1ccc(/C=C/c2c(-c3cccc(C)c3)oc3ccc(N4CCOCC4)cc23)cc1,22.5%
5,CCCOC(=O)Cc1c(O)c2ccccc2[nH]c1=O,16.9%
6,COCCCn1c(C)nnc1-c1cnn(-c2ccccc2)c1N,19.7%
7,Cc1nn(CC(=O)Nc2ccccn2)c(C)c1[N+](=O)[O-],8.36%
8,COc1ccc(CS(=O)(=O)CC(C)(O)c2ccccc2Cl)cc1 (centres unmarked),2.63%
9,CCn1c(SCC(=O)Nc2nccs2)nnc1C1CC1,19.8%
10,O=C(Nc1nccs1)C(c1ccccc1)N1CCCC1 (centres unmarked),-7.89%
11,O=C(CN1C(=O)C2CC=CCC2C1=O)NCC1COc2ccccc2O1 (centres unmarked),1.42%
12,CC1CCCC(C)N1/N=C/c1ccc([N+](=O)[O-])cc1 (centres unmarked),-16.2%
13,CC1(/[N+]([O-])=C/c2ccccc2F)CCCCC1=O (centres unmarked),25.2%
14,Cc1cc(C(=O)NNC(=O)COc2c(C)cc(Br)cc2C)n[nH]1,18%
15,CCOc1ccccc1NC(=O)COC(=O)/C=C/c1ccc(OC)c(OC)c1,19.9%
16,CSc1ccc(NC(=O)Nc2cc(C)ccn2)cc1,16.1%
17,CC(C)(C)CN1C(=O)C(=O)NC[C@H]1Cc1ccc(O)cc1,-1.88%
18,Cc1ccc(NC2=NCCCCC2)cc1C.Cl,12.1%
19,Cc1cc(N(CN2CCCC2=O)C(=O)c2ccc(OC(C)C)cc2)no1,-2.94%
20,C/C(=N\NC(=O)c1ccccc1[N+](=O)[O-])c1ccc(Br)s1,-9.32%
21,O=C(NCCc1cccs1)c1ccc(Cl)c(Cl)c1,-1.24%
22,Cc1cc(-c2c(C)[nH]n(-c3ccc(Cl)cc3)c2=O)n(-c2ccccc2)n1,12.8%
23,CC(=O)NCC(=O)Nc1ccc(Br)cc1C(=O)c1ccccc1,-19%

row,Structure (SMILES),"hERG current change (%, negative = inhibition) at 10uM"
1,CCOC(=O)c1nnn(CC(=O)N2N=C(c3ccc(Cl)cc3)CC2c2ccc(OC)cc2)c1C(=O)OCC (centres unmarked),-12%
2,Cc1cc(C)cc(N(CC(=O)O)S(=O)(=O)c2c(C)[nH]c(=O)[nH]c2=O)c1,15.9%
3,O=C(NNC1=Nc2ccccc2SC1)c1ccccc1F,18.6%
4,Cc1ccccc1C(=O)NNC(=S)NC(=O)COc1ccccc1,13.3%
5,CC(C)N(C(=O)Cn1cc(SCC(N)=O)c2ccccc21)C(C)C,7.8%
6,COc1ccc(S(=O)(=O)Nc2ccc(C)cc2)cc1N(C)S(=O)(=O)c1ccc(Cl)cc1,-3.56%
7,Cc1cc2ncn(C(=O)c3c(-c4ccccc4)noc3C)c2cc1C,-23.7%
8,CC(C)(C)OC(=O)N1CCC(c2c(C(=O)NCC3CCN(C4CCCC4)C3)cnn2-c2cccc(Cl)c2)CC1 (centres unmarked),-21.1%
9,CCOc1ccc(CCNc2nc3ccccc3n3cnnc23)cc1OCC,-11.6%
10,CCCNC(=S)N1CCCC(c2nc3ccccc3[nH]2)C1 (centres unmarked),-47.3%
11,Fc1cccc(CCN2CCN=C2Nc2ccccc2)c1,-18.1%
12,CCOc1ccc(NC(=O)NCc2ccco2)cc1,16.4%
13,Cn1cnc2c(oc3ccccc32)c1=O,9.26%
14,CCc1ccc(/C(C)=N/NC(=O)c2c[nH]c3ccccc23)s1,17.1%
15,CC1=NN(c2nc(-c3ccc(C)cc3)cs2)C(=O)C1N=Nc1ccccc1O (centres unmarked),9.21%
16,COc1ccccc1CNC(=O)C1CC(c2ccccc2F)=NO1 (centres unmarked),-8.13%
17,COC(=O)c1sc(N2C(=O)c3oc4ccccc4c(=O)c3C2c2cccc(O)c2)nc1C (centres unmarked),-29.9%
18,C=CCc1cc(OC)ccc1OCCOCCC(C(=O)OCC)C(=O)OCC,-2.91%
19,Cc1ccc(N(C(=O)CNC(=O)c2ccco2)C(C(=O)NC2CCCC2)c2ccncc2)cc1F (centres unmarked),-5.85%
20,CCN(CC)c1nc(C)nc2c1cnn2CCc1ccccc1.Cl,-3.51%
21,COc1cc(C(=O)N2CCN(c3cccc(C)c3C)CC2)cc(OC)c1OC,-12.2%
22,O=C(O)C1CCCN1S(=O)(=O)c1cc(Cl)ccc1Cl (centres unmarked),-0.53%
23,O=C(Nc1ccc(N2CCN(C(=O)c3ccc(Cl)cc3)CC2)cc1)c1ccc2c(c1)OCCO2,-8.29%

row,Structure (SMILES),"hERG current change (%, negative = inhibition) at 10uM"
1,O=C(NC(=S)Nc1ccc2c(c1)OCCO2)c1cccc2ccccc12,-0.118%
2,CCOc1cccc2cc(C(=O)NCc3ccc(Cl)cc3)c(=N)oc12,19.2%
3,CCOc1ccc(CC(=O)NNC(=S)NCCc2ccccc2)cc1,5.62%
4,CCOC(=O)C1(CCOc2ccccc2)CCN(Cc2ccc3c(c2)OCCO3)CC1,-73.3%
5,O=C(CCNS(=O)(=O)c1cccc2nsnc12)N1CCN(c2ccccn2)CC1,-24%
6,O=c1[nH]c(/C=C\c2cccs2)nc(O)c1[N+](=O)[O-],-4.76%
7,CCN(CC(=O)NCc1cccs1)C(=O)c1cccc(S(=O)(=O)Nc2ccc(C)cc2)c1,0.432%
8,COc1ccc(S(=O)(=O)Nc2cccc(S(=O)(=O)NC3=NCCC3)c2)cc1[N+](=O)[O-],18.6%
9,CC(=O)Nc1cc2c3c(c1)CCN3C(=O)CC2,23.4%
10,ClC1=C(Cl)C2(Cl)C3C(Cl)C=CC3C1(Cl)C2(Cl)Cl (centres unmarked),5.58%
11,Cc1ccc(-c2nn(CC(=O)NCCN3CCOCC3)c(=O)c3ccccc23)cc1,-16.1%
12,COc1ccc(N=Cc2nc(-c3ccco3)oc2O)cc1,-7.62%
13,Cc1ccc(Cl)cc1NS(=O)(=O)N1CCOCC1,4.3%
14,Cc1cc(C)cc(NC(=O)CN2CCC(NC(=O)c3ccccc3F)CC2)c1,-13%
15,Cc1ccc(-n2nnnc2SCC(=O)Nc2nc(-c3ccc(F)cc3)cs2)cc1C,1.81%
16,COc1ccc2c(c1)C(c1ccc(C)o1)=NNC(c1cccnc1)=N2,-8.45%
17,COc1ccccc1C(=O)Nc1ccnn1C1CCN(CC2CC=CCC2)CC1 (centres unmarked),-82.3%
18,O=C(Nc1cccnc1)C1CCC(CNS(=O)(=O)c2cccc3nsnc23)CC1 (centres unmarked),-15.3%
19,COc1cccc(C(=O)Nc2ccc3c(c2)C(=O)N(CC2CCCO2)C3=O)c1 (centres unmarked),-28.8%
20,Cc1ccccc1NC(=O)CN1C(=O)NC(C)(c2ccc3c(c2)OCO3)C1=O (centres unmarked),9.53%
21,NNC(=O)c1ccc(Cn2cccn2)o1,5.58%
22,CCC(=O)NCC(c1ccco1)N1CCN(c2ccc(OC)cc2)CC1 (centres unmarked),21.2%
23,Br.CCn1c2c(c(=N)c3ccccc31)CCC2,5.12%

row,Structure (SMILES),"hERG current change (%, negative = inhibition) at 10uM"
1,Cc1nc(NC(=O)CN(C)S(=O)(=O)c2ccc(Br)cc2)sc1C,-9.45%
2,O/N=C1\CCC\C1=C/c1ccco1,-2.24%
3,Fc1ccc2nc3n(c2c1F)CCCCCC3,7.97%
4,CCOc1c2ccccc2nn1CCO,17.5%
5,CCOC(=O)N1CCN(C(=O)COc2ccccc2[N+](=O)[O-])CC1,19.1%
6,O=C(Nc1ccncc1)c1cccc2ccccc12,5.23%
7,Cc1ccc(N2C(=O)CC(N(CCc3ccccc3)C(=S)Nc3ccc(N(C)C)cc3)C2=O)cc1 (centres unmarked),10.3%
8,Nc1nc(Nc2ccccc2)nc2c1ncn2[C@@H]1O[C@H](CO)[C@@H](O)[C@H]1O,2.99%
9,COc1ccccc1NC(=O)Nc1nc(CC(=O)Nc2ccc(F)c(F)c2)cs1,-2.04%
10,CN(C(=O)COc1cc(C(F)(F)F)nn1C)c1ccccc1,88.5%
11,COc1c(CC=C(C)C)cc(C2CC(=O)c3c(O)cc(O)cc3O2)c(CC=C(C)C)c1O (centres unmarked),1.13%
12,O=C(Cc1ccc(S(=O)(=O)N2CCCC2)s1)N1CCOCC1,-0.493%
13,O=C(CSc1nnc(C2CCCCC2)o1)Nc1ccccc1Cl,-11.5%
14,O=C(CC1SC(=O)NC1=O)Nc1ccc(Cl)cc1 (centres unmarked),21.2%
15,COC(=O)Cc1cc(C)cc2c(=O)cc(-c3ccoc3)oc12,3.25%
16,COc1ccc(C2=NOC(Cn3nc(C(=O)NCc4cccs4)cc3-c3ccccc3)C2)cc1 (centres unmarked),-51.3%
17,O=C(Nc1ccc2c(c1)OCCO2)c1cccc(Cl)c1,10.6%
18,CCOC(=O)c1c(NC(=O)C(=O)N/N=C/c2ccccc2O)sc2c1CCCCC2,8.65%
19,COc1cc(CCC(=O)NCc2ccc(Cl)cc2)cc(OC)c1OC,3.18%
20,Cc1cc(NC(=O)CSCC(=O)N(c2ccc(F)cc2)C(C(=O)NC2CCCCC2)c2ccc(O)c(O)c2)no1 (centres unmarked),-9.11%
